We go through 63 molecules from PubChem BioAssay AID1963576 (National Center for Advancing Translational Sciences (NCATS), 2024).

Screen size: about 46,000 compounds; about 60 (0.1%) were called active. Another 3% or so got no clear call; they are omitted. Calls come from the whole dose curve; as a rule, active = well fitted inhibition curve with a large enough effect; inconclusive = small, poorly fitted or top-dose-only effect; inactive = no such curve, though single readings can be large or run the other way. The list shows a part of the results.

This assay is described as follows: Primary qHTS assay for Inhibitors of ovarian cancer metastasis using an organotypic tumor microenvironment (TME) model.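 For activity change, negative = inhibition: plate controls were DMSO wells for no effect and tomatine positive control wells for full effect.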 Note: nearly all actives have a fitted effect of over 65% in size. The settings on record: SKOV3ip1-GFP adhesion/invasion on 3D omental model, fluorescence; series mostly up to 45.8 µM; activity change, negative = inhibition: at the top concentration. The procedure, abridged: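 qHTS, 4-pt dose (0.36-46 umol/L); SKOV3ip1-GFP, 1,200 cells/well, no FBS; primary omental fibroblast/mesothelial co-culture 48 h pre-grown; 2 h RT + 16 h 37 C; PBS wash, 4% PFA; GFP count 488/509 nm.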
In general terms: In qHTS, concentration-response curves come from the screen itself.
With `Cc1c(Cl)cccc1NC(=O)CCS(=O)(=O)c1cccc2nsnc12`, the result was inactive.

As to `COc1ccc(OC)c(S(=O)(=O)NCCc2sc(C)nc2C)c1`, the molecule was classed as inactive.

With `NNCCc1ccccc1`, the “activity change, negative = inhibition” value is inactive: 7.37%.

Consider `COc1cccc(-c2nn(C)c3sc(C(=O)N4CCN(c5cccc(C(F)(F)F)c5)CC4)cc23)c1`, for which the call was inactive.

With `Cc1cn2c(=O)cc(COC(=O)COc3ccc(F)cc3)nc2s1`, the “activity change, negative = inhibition” value is inactive: 1.48%.

With `Cc1ccc(NC(=O)CCNS(=O)(=O)c2cccs2)cc1F`, the result was inactive.

Take `COc1ccccc1N(CC(=O)NCCSc1ccccc1)S(=O)(=O)c1ccc(C)cc1`: the “activity change, negative = inhibition” value was inactive: 4.33%.

For `COC1(C(F)(F)F)NC(=O)N(c2ccc(F)cc2)C1=O` (stereo not drawn), the “activity change, negative = inhibition” value was inactive: 2.77%.

Take `Cc1cccc(-n2c3nc(=O)n(C)c(=O)c-3cc3c(C)nn(-c4ccccc4)c32)c1C`: the “activity change, negative = inhibition” value was inactive: 7.51%.

Consider `COc1cccc(CCNC(=O)c2cnc3sc(N4CCCC4)nn3c2=O)c1`, for which the “activity change, negative = inhibition” value is inactive: -1.76%.

For `COc1ccc(-n2c(=O)c3c(c4cc(OC)ccc4n3C)n(Cc3c(F)cccc3Cl)c2=O)cc1`, the “activity change, negative = inhibition” value was inactive: 3.06%.

With `CSc1ncc2c(n1)-c1ccccc1N(Cc1ccccc1C)S2(=O)=O`, the “activity change, negative = inhibition” value was inactive: 10.9%.

In the case of `Fc1ccc(NCc2nc3ccccc3n2CCOc2ccccc2Cl)cc1`, the “activity change, negative = inhibition” value is inactive: -14.4%.

Take `CC1CCc2c(sc3nnn(CC(=O)Nc4ccccc4Cl)c(=O)c23)C1` (stereo not drawn): the “activity change, negative = inhibition” value was inactive: 2.19%.

As to `Cc1ccc(OCCSc2nc3ccc(NC(=O)COc4ccc(C)cc4)cc3s2)cc1`, the “activity change, negative = inhibition” value was inactive: -9.25%.

With `CCOC(=O)c1cnn(-c2cccc(Cl)c2)c1C1CCN(C(=O)OC(C)(C)C)CC1`, the molecule was classed as inactive.

On to `COc1ccc(NC(=O)N2CCC(n3c(C)nc4cccnc43)CC2)cc1OC`, for which the “activity change, negative = inhibition” value was inactive: 1.32%.

For the molecule `CCOC(=O)C1=C(CN(CC)Cc2ccccc2)NC(=O)NC1c1ccc(Cl)cc1` (stereo not drawn), the call was inactive.

As for `COc1ccc(Cl)cc1NC(=O)N1CCC2(CC1)Oc1ccccc1C(=O)N2Cc1ccc(F)cc1`, the “activity change, negative = inhibition” value was inactive: -7.34%.

With `CSc1nc2sc3c(c2c(=O)n1-c1ccc(C)cc1)CCCC3`, the “activity change, negative = inhibition” value is inactive: 12.2%.

Consider `O=C(Cn1ccn(-c2ccc(F)c(F)c2)c(=O)c1=O)NCc1ccccc1`, for which the “activity change, negative = inhibition” value is inactive: 7.02%.

`O=C(CCSCc1ccccc1Cl)NCCc1ccccc1`: the “activity change, negative = inhibition” value was inactive: 5.36%.

Turning to `Cc1c(-c2cccc(NC(=O)Cc3ccccc3)c2)nc2ncccn12`, the molecule was classed as inactive.

Take `CCOc1ccc(-c2c(C)nn3c(C)c(C(=O)NC(C)c4ccccc4)cnc23)cc1OCC` (stereo not drawn): the “activity change, negative = inhibition” value was inactive: -13.1%.

As to `CCCCC(=O)Nc1cc(-c2cn3cccnc3n2)ccc1C`, the outcome was inactive.

`CCCn1cc(S(=O)(=O)c2ccc(OCC)cc2)c(=O)c2cc(C)ccc21`: the “activity change, negative = inhibition” value was inactive: -13.5%.

Consider `CN(CC(=O)N(Cc1ccc(C2CCCCC2)cc1)c1ccc(C(=O)O)c(O)c1)S(=O)(=O)c1c(F)c(F)c(F)c(F)c1F`, for which the “activity change, negative = inhibition” value was inactive: 23.3%.

Regarding `CN(Cc1ccccc1)C(=O)c1c[nH]c2ccc(S(=O)(=O)Nc3ccccc3F)cc2c1=O`, the call was inactive.

`CCOC(=O)c1cc2c(=O)n3ccccc3nc2n(CC2CCCO2)c1=NC(=O)c1ccc(OCC)cc1` (stereo not drawn): the “activity change, negative = inhibition” value is inactive: -1.57%.

`Cc1ccc(OCCSc2nc3ccccc3n2CC(=O)N2CCOCC2)cc1C`: the outcome was inactive.

With `COc1ccc(CNc2nc(-c3ccccc3)nn2C(=O)c2ccccc2OC)cc1`, the “activity change, negative = inhibition” value is inactive: 38.9%.

Consider `COc1cc(Cl)c(S(=O)(=O)N2CCN(c3c(C)cccc3C)CC2)cc1Cl`, for which the “activity change, negative = inhibition” value was inactive: 28.8%.

On to `Cc1cc(C)c(NC(=O)c2cc(S(=O)(=O)N3CCCC3)cn2C)c(C)c1`, for which the “activity change, negative = inhibition” value is inactive: 0.175%.

Turning to `COc1ccc(N2CCN(CCCNC(=O)c3sc4ncccc4c3-n3cccc3)CC2)cc1`, the “activity change, negative = inhibition” value is inactive: -22%.

For the molecule `CC(C)OCCCNC(=O)Cn1c(-c2cccs2)cc2cc(F)ccc21`, the “activity change, negative = inhibition” value is inactive: -5.85%.

Turning to `COc1cc2nc(NCCc3ccc(Cl)cc3)n3nc(-c4ccccc4)nc3c2cc1OC`, the “activity change, negative = inhibition” value is inactive: -5.11%.

For the molecule `CCOc1cc(C(=O)N2CC(=O)Nc3ccc(F)cc3C2c2ccccc2)cc(OCC)c1OCC` (stereo not drawn), the “activity change, negative = inhibition” value was inactive: 18.5%.

For `CCOc1cc(-c2cc(C(=O)O)c3c(-c4ccccc4)[nH]nc3n2)ccc1O`, the “activity change, negative = inhibition” value is inactive: -0.0991%.

In the case of `COc1ccc(S(=O)(=O)NCC(c2ccco2)S(=O)(=O)c2cccs2)cc1OC` (stereo not drawn), the “activity change, negative = inhibition” value is inactive: 5.98%.

As for `COc1cc(C(=O)OCc2cc(=O)n3ccsc3n2)cc(OC)c1OC`, the “activity change, negative = inhibition” value was inactive: -8.5%.

Regarding `COc1ccc(NC(=O)Cn2nc(C)c3c(C)n(-c4ccccc4)nc3c2=O)cc1OC`, the “activity change, negative = inhibition” value was inactive: 0.317%.

For `CCN(C(=O)c1nn(C)c2c1CSc1ccccc1-2)c1cccc(C)c1`, the “activity change, negative = inhibition” value was inactive: -0.334%.

For `CCN1C(=O)C(Cc2nc3ccccc3c(=O)n2-c2ccc(OC)cc2)c2cc(C)ccc21` (stereo not drawn), the “activity change, negative = inhibition” value is inactive: -1.27%.

For `N#Cc1cccc(NC(=O)Cn2nc(Cc3ccncc3)c3ccccc3c2=O)c1`, the “activity change, negative = inhibition” value was inactive: -7.98%.

On to `COc1ccc(CCNC(=O)CCCCn2c(=O)c3ccccc3n(CC(=O)Nc3ccc(C)cc3C)c2=O)cc1OC`, for which the call was inactive.

On to `O=C(COc1ccccc1)NCCc1csc(-c2cccc(F)c2)n1`, for which the “activity change, negative = inhibition” value is inactive: -9.75%.

`COC(=O)c1cccc(Cn2nnc3sc4c(c3c2=O)CCC(C(C)(C)C)C4)c1` (stereo not drawn): the “activity change, negative = inhibition” value was inactive: 14%.

For `Cc1ccc(C)c(Nc2nc(-c3ccccc3)c3cc(Br)ccc3n2)c1`, the “activity change, negative = inhibition” value is inactive: -5.63%.

For the molecule `CCN(CC)CCNC(=O)C(=O)NCC(c1cccnc1)N1CCN(c2ccccc2)CC1` (stereo not drawn), the “activity change, negative = inhibition” value was inactive: 20.8%.

For the molecule `Cc1cccc(C(=O)Nc2cccc(OCc3cc(=O)n4cccc(C)c4n3)c2)c1`, the “activity change, negative = inhibition” value is inactive: 1.11%.

As for `Cc1cccc(N(C)C(CNS(=O)(=O)c2ccccc2)c2ccccc2)c1` (stereo not drawn), the “activity change, negative = inhibition” value is inactive: -2.87%.

Turning to `O=C(Nc1cccc(Cl)c1)c1cc(-c2ccc3c(c2)OCCO3)on1`, the “activity change, negative = inhibition” value is inactive: -3.73%.

As to `CC(C)(C)OC(=O)N1CCC(c2c(C(=O)NC3CCCCC3)cnn2-c2cccc(F)c2)CC1`, the “activity change, negative = inhibition” value is inactive: 1.19%.

In the case of `O=C(CSc1ccccc1)NCc1ccc2c(c1)CCN2C(=O)c1ccc(Cl)cc1`, the “activity change, negative = inhibition” value was inactive: 7.82%.

As for `Cc1cc(Sc2ccc(Cl)cc2)nc2ccccc12`, the “activity change, negative = inhibition” value was inactive: -5.18%.

In the case of `O=C(COc1ccccc1)NCc1ccc2c(c1)CCN2C(=O)c1ccccc1`, the “activity change, negative = inhibition” value was inactive: -22.7%.

With `Cc1ccc(N(C)S(=O)(=O)c2ccc3[nH]c4c(c3c2)CCCC4)cc1`, the molecule was classed as inactive.

In the case of `Cc1cccc(C(=O)Nc2cccc(C(=O)OCc3cc(=O)n4nc(C(C)C)sc4n3)c2)c1`, the “activity change, negative = inhibition” value is inactive: 29.6%.

`CC(NC(=O)c1ccc(NC(=O)c2nsc3ccccc23)cc1)c1ccccc1` (stereo not drawn): the “activity change, negative = inhibition” value was inactive: -24.2%.

For the molecule `Cn1nnnc1SCCNCc1ccc(OCc2ccccc2Cl)cc1`, the “activity change, negative = inhibition” value was inactive: -10.6%.

`O=C(c1ccccc1Cl)N(Cc1ccco1)Cc1ccco1`: the molecule was classed as inactive.

As for `CN(Cc1ccccc1)c1ccc(-c2nc(-c3ccco3)no2)cc1[N+](=O)[O-]`, the molecule was classed as inactive.

With `CC(=O)c1cccc(NC(=O)c2c(-c3ccccc3)c(-c3ccccc3)nn(C)c2=O)c1`, the “activity change, negative = inhibition” value was inactive: -0.914%.
